Measured values: the supplement of paper PMC4967469
By IC50 is meant the dose at which the fit gives 50% viability; where the fit passes the top or lowest dose, that dose stands as a limit. The AUC spans the tested range (256-fold, ending at the top dose) of the same fit; the more sensitive the line, the further below 1. For part of these data: An inferred top dose is not printed in the source and was worked back from the curve model. For part of these data: An entry number marks a drug with two screens in the source, which often give different values.

Columns and labels:
Assay in all cases: Viability of human cancer cell lines after 72 h of drug (GDSC screen)
BMS-708163 = compound: NC(=O)[C@@H](CCC(F)(F)F)N(Cc1ccc(-c2ncon2)cc1F)S(=O)(=O)c1ccc(Cl)cc1 [BMS-708163]; details: top dose 5 µM; screen: GDSC drug entry 1072; top dose inferred
Experimental: (§1)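 Human cancer cell lines in 384-well plates, medium with 10% serum, drug for 72 h over a 256-fold dose range (nine 2-fold or five 4-fold steps up to the top dose). Adherent lines were fixed and stained with the nucleic acid dye Syto60, suspension lines read with resazurin; signal relative to control wells, capped at 0 and 100%. One two-parameter sigmoid per drug and line, fitted in a mixed model over all curves with the slope shared within a line.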

KIN001-135 = compound: COc1cc2ncn(-c3cc(OCc4ccccc4S(C)(=O)=O)c(C#N)s3)c2cc1OC [KIN001-135]; details: top dose 5 µM; top dose inferred
Experimental: as §1

Parthenolide = compound: C=C1C(=O)O[C@H]2[C@H]1CC/C(C)=C/CC[C@@]1(C)O[C@@H]21 [Parthenolide]; details: top dose 5 µM
Experimental: as §1

PAC-1 = compound: C=CCc1cccc(/C=N/NC(=O)CN2CCN(Cc3ccccc3)CC2)c1O [PAC-1]; details: top dose 2.56 µM
Experimental: as §1

| Cell Line | AUC (BMS-708163) | IC50 (BMS-708163) | AUC (KIN001-135) | IC50 (KIN001-135) | AUC (Parthenolide) | IC50 (Parthenolide) | AUC (PAC-1) | IC50 (PAC-1) |
| --- | --- | --- | --- | --- | --- | --- | --- | --- |
| DEL (lymphoid neoplasm, suspension) | 0.986 | > 5 µM | 0.993 | > 5 µM | 0.79 | 1.73 µM | 0.927 | > 2.56 µM |
| DG-75 (Burkitt lymphoma, suspension) | 0.969 | > 5 µM | 0.975 | > 5 µM | 0.96 | > 5 µM | 0.955 | > 2.56 µM |
| DJM-1 (skin, adherent) | 0.982 | > 5 µM | 0.982 | > 5 µM | 0.896 | > 5 µM | 0.989 | > 2.56 µM |
| DMS-79 (small cell lung carcinoma, suspension) | 0.987 | > 5 µM | 0.97 | > 5 µM | 0.987 | > 5 µM | 0.972 | > 2.56 µM |
| DMS-114 (small cell lung carcinoma, adherent) | 0.984 | > 5 µM | 0.985 | > 5 µM | 0.985 | > 5 µM | 0.977 | > 2.56 µM |
| DND-41 (T-cell leukaemia, suspension) | 0.941 | > 5 µM | 0.984 | > 5 µM | 0.941 | > 5 µM | 0.745 | 0.724 µM |
| DSH1 (bladder, adherent) | 0.959 | > 5 µM | 0.989 | > 5 µM | 0.989 | > 5 µM | 0.986 | > 2.56 µM |
| DU-4475 (breast, suspension) | 0.991 | > 5 µM | 0.992 | > 5 µM | 0.879 | 3.54 µM | 0.846 | 1.37 µM |
| Daudi (Burkitt lymphoma, suspension) | 0.976 | > 5 µM | 0.983 | > 5 µM | 0.886 | 4.29 µM | 0.792 | 0.997 µM |
| EB2 (Burkitt lymphoma, suspension) | 0.989 | > 5 µM | 0.986 | > 5 µM | 0.988 | > 5 µM | 0.832 | 1.42 µM |
| EB-3 (Burkitt lymphoma, suspension) | 0.984 | > 5 µM | 0.983 | > 5 µM | 0.95 | > 5 µM | 0.885 | > 2.56 µM |
| EC-GI-10 (oesophagus, adherent) | 0.976 | > 5 µM | 0.986 | > 5 µM | 0.987 | > 5 µM | 0.989 | > 2.56 µM |
| EJM (lymphoid neoplasm, semi-adherent) | 0.992 | > 5 µM | 0.991 | > 5 µM | 0.989 | > 5 µM | 0.991 | > 2.56 µM |
| EKVX (lung adenocarcinoma, adherent) | 0.968 | > 5 µM | 0.95 | > 5 µM | 0.949 | > 5 µM | 0.908 | > 2.56 µM |
| EM-2 (chronic myeloid leukaemia, suspension) | 0.971 | > 5 µM | 0.971 | > 5 µM | 0.772 | 2.18 µM | 0.964 | > 2.56 µM |
| ES1 (Ewing sarcoma, adherent) | 0.953 | > 5 µM | 0.982 | > 5 µM | 0.957 | > 5 µM | 0.833 | 1.61 µM |
| ES3 (Ewing sarcoma, adherent) | 0.895 | > 5 µM | 0.946 | > 5 µM | 0.985 | > 5 µM | 0.885 | > 2.56 µM |
| ES5 (Ewing sarcoma, adherent) | 0.903 | > 5 µM | 0.982 | > 5 µM | 0.98 | > 5 µM | 0.841 | 2.17 µM |
| ES6 (Ewing sarcoma, adherent) | 0.96 | > 5 µM | 0.973 | > 5 µM | 0.973 | > 5 µM | 0.808 | 1.73 µM |
| ES7 (Ewing sarcoma, adherent) | 0.928 | > 5 µM | 0.983 | > 5 µM | 0.983 | > 5 µM | 0.87 | 2.49 µM |
| ES8 (Ewing sarcoma, adherent) | 0.987 | > 5 µM | 0.987 | > 5 µM | 0.948 | > 5 µM | 0.984 | > 2.56 µM |
| ES-2 (ovary, adherent) | 0.991 | > 5 µM | 0.991 | > 5 µM | 0.99 | > 5 µM | 0.955 | > 2.56 µM |
| ETK-1 (biliary tract, adherent) | 0.97 | > 5 µM | 0.977 | > 5 µM | 0.981 | > 5 µM | 0.871 | > 2.56 µM |
| EVSA-T (breast, adherent) | 0.983 | > 5 µM | 0.991 | > 5 µM | 0.883 | 4.03 µM | 0.983 | > 2.56 µM |
| EW-1 (Ewing sarcoma, semi-adherent) | 0.984 | > 5 µM | 0.989 | > 5 µM | 0.985 | > 5 µM | 0.852 | 1.73 µM |
| EW-3 (Ewing sarcoma, adherent) | 0.984 | > 5 µM | 0.972 | > 5 µM | 0.968 | > 5 µM | 0.953 | > 2.56 µM |
| EW-11 (Ewing sarcoma, adherent) | 0.789 | 2.93 µM | 0.974 | > 5 µM | 0.981 | > 5 µM | 0.884 | > 2.56 µM |
| EW-13 (Ewing sarcoma, suspension) | 0.982 | > 5 µM | 0.984 | > 5 µM | 0.985 | > 5 µM | 0.904 | > 2.56 µM |
| EW-16 (Ewing sarcoma, adherent) | 0.884 | > 5 µM | 0.976 | > 5 µM | 0.984 | > 5 µM | 0.826 | 1.64 µM |
| EW-18 (Ewing sarcoma, suspension) | 0.985 | > 5 µM | 0.981 | > 5 µM | 0.931 | > 5 µM | 0.923 | > 2.56 µM |
